In the supplement of paper PMC8728848:
The list shows a part of the results.

Legend:
Experiment in all cases: glycan array binding signal (z-score within array); higher = stronger binding
Settings in all cases: glycan notation: IUPAC condensed, linker removed
Fuc(a1-2)Gal = target: Fuc(a1-2)Gal
How it was run: (§1)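 Glycan array binding is given as a within-array Z-score, which can be read as non-binding when negative. The arrays, 3228 of them, came from the Consortium for Functional Glycomics database and were retained only where the protein sequence was available. Z-scores were averaged across arrays of the same protein sequence at different concentrations or buffers and across linkers.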

Fuc(a1-2)Gal(b1-3)GalNAc = target: Fuc(a1-2)Gal(b1-3)GalNAc
How it was run: as §1

[1] = target: Fuc(a1-2)Gal(b1-3)GalNAc(b1-3)Gal
How it was run: as §1

[2] = target: Fuc(a1-2)Gal(b1-3)GalNAc(b1-3)Gal(a1-4)Gal(b1-4)Glc
How it was run: as §1

[3] = target: Fuc(a1-2)Gal(b1-3)GalNAc(b1-4)[Neu5Ac(a2-3)]Gal(b1-4)Glc
How it was run: as §1

Fuc(a1-2)Gal(b1-3)GlcNAc = target: Fuc(a1-2)Gal(b1-3)GlcNAc
How it was run: as §1

[4] = target: Fuc(a1-2)Gal(b1-3)[Fuc(a1-4)]GlcNAc
How it was run: as §1

Fuc(a1-2)Gal(b1-4)Glc = target: Fuc(a1-2)Gal(b1-4)Glc
How it was run: as §1

Fuc(a1-2)Gal(b1-4)GlcNAc = target: Fuc(a1-2)Gal(b1-4)GlcNAc
How it was run: as §1

[5] = target: Fuc(a1-2)Gal(b1-4)GlcNAc(b1-3)Gal(b1-4)GlcNAc
How it was run: as §1

[6] = target: Fuc(a1-2)Gal(b1-4)GlcNAc(b1-3)Gal(b1-4)GlcNAc(b1-3)Gal(b1-4)GlcNAc
How it was run: as §1

[7] = target: Fuc(a1-2)Gal(b1-4)[Fuc(a1-3)]GlcNAc
How it was run: as §1

Fuc(a1-2)GlcNAc = target: Fuc(a1-2)GlcNAc
How it was run: as §1

Fuc(a1-2)[Gal(a1-3)]Gal = target: Fuc(a1-2)[Gal(a1-3)]Gal
How it was run: as §1

[8] = target: Fuc(a1-2)[Gal(a1-3)]Gal(b1-4)GlcNAc
How it was run: as §1

[9] = target: Fuc(a1-2)[Gal(a1-4)]Gal(b1-4)GlcNAc
How it was run: as §1

[10] = target: Fuc(a1-2)[GalNAc(a1-3)]Gal
How it was run: as §1

[11] = target: Fuc(a1-2)[GalNAc(a1-3)]Gal(b1-4)GlcNAc
How it was run: as §1

[12] = target: Fuc(a1-2)[GalNAc(a1-4)]Gal(b1-4)GlcNAc
How it was run: as §1

[13] = target: Fuc(a1-2)[GalNAc(b1-3)]Gal
How it was run: as §1

Fuc(a1-3)GlcNAc = target: Fuc(a1-3)GlcNAc
How it was run: as §1

[14] = target: Fuc(a1-3)[Gal(b1-4)]GlcNAc
How it was run: as §1

[15] = target: Fuc(a1-3)[Gal(b1-4)]GlcNAc(b1-3)Gal(b1-4)[Fuc(a1-3)]GlcNAc
How it was run: as §1

[16] = target: Fuc(a1-3)[Gal(b1-4)]GlcNAc(b1-3)Gal(b1-4)[Fuc(a1-3)]GlcNAc(b1-3)Gal(b1-4)[Fuc(a1-3)]GlcNAc
How it was run: as §1

[17] = target: Fuc(a1-3)[Gal3S(b1-4)]GlcNAc
How it was run: as §1

Fuc(b1-3)GlcNAc = target: Fuc(b1-3)GlcNAc
How it was run: as §1

Gal(a1-2)Gal = target: Gal(a1-2)Gal
How it was run: as §1

Gal(a1-3)Gal = target: Gal(a1-3)Gal
How it was run: as §1

Gal(a1-3)Gal(b1-4)Glc = target: Gal(a1-3)Gal(b1-4)Glc
How it was run: as §1

Gal(a1-3)Gal(b1-4)GlcNAc = target: Gal(a1-3)Gal(b1-4)GlcNAc
How it was run: as §1

B1: TES70 (Toxocara canis), Q9XYV5 (protein)
chain: MISVVLVAIALQISGSYAGACNSINDCGLFETCVNNMCVPDNMGCPMPCQAGQVCVPPNCVAAPAPQPVTTTTAAATTTTSARGRCNANAQCGAFEVCVNGMCQPNNAGCNPPCAANQVCVAPNCVPAPIPPPAQSTTTAPATTRAPPSCPPSWSPFSGHCYYVAVGSFLFNQASDWCTQTNSRPVWFDQSNVGTFGAELYFINVLAASRGVQTYWLGLNRQFGQWVWTNGSPLIFSNWRGSEPDGCCGGNVTCALVNYANPFGQWDDAGCGNIWRNPQGFICKKPLA
- glycan array binding signal (z-score) (Fuc(a1-2)Gal): -0.112
- glycan array binding signal (z-score) (Fuc(a1-2)Gal(b1-3)GalNAc): -0.121
- glycan array binding signal (z-score) [1]: -0.183
- glycan array binding signal (z-score) [2]: -0.134
- glycan array binding signal (z-score) [3]: -0.092
- glycan array binding signal (z-score) (Fuc(a1-2)Gal(b1-3)GlcNAc): -0.112
- glycan array binding signal (z-score) [4]: -0.183
- glycan array binding signal (z-score) (Fuc(a1-2)Gal(b1-4)Glc): -0.173
- glycan array binding signal (z-score) (Fuc(a1-2)Gal(b1-4)GlcNAc): -0.11
- glycan array binding signal (z-score) [5]: -0.095
- glycan array binding signal (z-score) [6]: -0.144
- glycan array binding signal (z-score) [7]: -0.127
- glycan array binding signal (z-score) (Fuc(a1-2)GlcNAc): -0.185
- glycan array binding signal (z-score) (Fuc(a1-2)[Gal(a1-3)]Gal): -0.052
- glycan array binding signal (z-score) [8]: -0.123
- glycan array binding signal (z-score) [9]: -0.13
- glycan array binding signal (z-score) [10]: -0.12
- glycan array binding signal (z-score) [11]: -0.165
- glycan array binding signal (z-score) [12]: -0.068
- glycan array binding signal (z-score) [13]: -0.176
- glycan array binding signal (z-score) (Fuc(a1-3)GlcNAc): -0.169
- glycan array binding signal (z-score) [14]: -0.156
- glycan array binding signal (z-score) [15]: -0.109
- glycan array binding signal (z-score) [16]: 0.054
- glycan array binding signal (z-score) [17]: -0.132
- glycan array binding signal (z-score) (Fuc(b1-3)GlcNAc): -0.15
- glycan array binding signal (z-score) (Gal(a1-2)Gal): -0.125
- glycan array binding signal (z-score) (Gal(a1-3)Gal): -0.102
- glycan array binding signal (z-score) (Gal(a1-3)Gal(b1-4)Glc): -0.114
- glycan array binding signal (z-score) (Gal(a1-3)Gal(b1-4)GlcNAc): -0.108
